{
  "source": "PubChem BioAssay AID485294",
  "about": "(National Center for Advancing Translational Sciences (NCATS), 2010)",
  "note": "The campaign covered roughly 370,000 compounds. About 150 (0.041%) were called active. This list was built around the results that the source calls inconclusive (neither active nor inactive); the mix of calls is not that of the screen. The call rests on the fitted dose curve; in most records, active means well fitted inhibition curve with a large enough effect; inconclusive means small, poorly fitted or top-dose-only effect; inactive means flat fitted curve, though single readings scatter. Potencies of inconclusive entries are left out as doubtful fits. Potency means the concentration at half of the fitted maximal effect; tags describe the fitted curve by direction and shape.",
  "data": [
    {"target": "Beta-lactamase (Escherichia coli (strain K12)) (UniProt P00811)", "sequence (P00811 whole entry, looked up)": "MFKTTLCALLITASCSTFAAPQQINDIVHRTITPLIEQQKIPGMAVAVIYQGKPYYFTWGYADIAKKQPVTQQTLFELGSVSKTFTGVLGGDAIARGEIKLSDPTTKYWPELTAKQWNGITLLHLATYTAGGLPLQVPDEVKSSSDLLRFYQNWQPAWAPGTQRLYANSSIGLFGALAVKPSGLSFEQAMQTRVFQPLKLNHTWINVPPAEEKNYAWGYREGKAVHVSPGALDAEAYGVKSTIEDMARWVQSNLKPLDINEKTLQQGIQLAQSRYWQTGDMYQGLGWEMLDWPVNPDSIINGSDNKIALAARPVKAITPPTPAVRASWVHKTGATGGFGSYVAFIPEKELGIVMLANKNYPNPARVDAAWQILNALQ", "assay": "qHTS Inhibitors of AmpC Beta-Lactamase (assay with detergent); further: nearly all actives have a fitted effect of over 25% in size;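 on activity change, negative = inhibition: 0% = no-compound wells and -100% = no-enzyme wells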", "conditions": "AmpC hydrolysis of nitrocefin, absorbance 480 nm, 0.01% Triton; activity change, negative = inhibition: at 114 µM (top of the series)", "how_it_was_run": "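20 mM phosphate pH 7.0 + 0.01% (detergent screen) or 0.0001% Triton X-100; 5.3 nM AmpC reagent; cpd preinc 15 min RT; nitrocefin (800 uM stock) to start; A480 q20 s × 4 min; Activity was normalised to no-enzyme and no-compound control wells.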", "values": [
      {"smiles": "O=C(NC(=S)Nc1ccccc1N1CCCCC1)c1ccco1", "Potency": "inconclusive [inhibitor, partial curve, poor fit]"},
      {"smiles": "COc1ccccc1-n1c(SCC(N)=O)nnc1-c1ccc(S(=O)(=O)N2CCCCC2)cc1", "Potency": "inconclusive [inhibitor, partial curve]"},
      {"smiles": "O=[N+]([O-])c1ccccc1-c1nc(-c2ccc(Br)o2)no1", "activity change, negative = inhibition": "inactive: -5.16%"},
      {"smiles": "Cc1cc(C)c2cc(CN(CCO)C(c3nnnn3Cc3ccc(F)cc3)C(C)C)c(=O)[nH]c2c1", "note": "(stereo not given)", "Potency": "inconclusive [inhibitor, full curve]"},
      {"smiles": "O=C(Nc1nc2cc3c(cc2s1)OCCO3)c1cccc(S(=O)(=O)N2CCOCC2)c1", "Potency": "inconclusive [inhibitor, full curve, poor fit]"},
      {"smiles": "CCCCNC(=S)Nc1ccc([N+](=O)[O-])cc1", "activity change, negative = inhibition": "inactive: -5.66%"},
      {"smiles": "COc1ccc(OCC(=O)N2CCN(Cc3ccc4c(c3)OCO4)CC2)cc1", "activity change, negative = inhibition": "inactive: 0.759%"},
      {"smiles": "COc1cc(-c2noc(C)c2/C=C/c2ccc(OC(C)=O)cc2)cc(OC)c1OC", "Potency": "inconclusive [inhibitor, full curve, poor fit]"},
      {"smiles": "Cc1cc(C)cc(C(=O)NC2C(=O)N3C(C(=O)O)=C(CSc4nnc(C)s4)CSC23)c1", "note": "(stereo not given)", "Potency": "inconclusive [inhibitor, partial curve, poor fit]"},
      {"smiles": "O=C1/C(=C/N(C(=O)c2ccco2)c2ccc(Br)cc2)Sc2ccccc21", "Potency": "inconclusive [inhibitor, single point]"},
      {"smiles": "CCc1nccn1S(=O)(=O)c1ccc(OC)c(C)c1C", "Potency": "inconclusive [inhibitor, full curve, poor fit]"},
      {"smiles": "Cc1ccc(S(=O)(=O)N2CCOCC2)cc1NC(=O)COC(=O)c1cc(=O)c2ccccc2o1", "Potency": "inconclusive [inhibitor, full curve, poor fit]"},
      {"smiles": "O=c1[nH]c(CSc2nnc(-c3ccncc3)n2Cc2ccco2)nc2ccccc12", "Potency": "inconclusive [inhibitor, full curve, poor fit]"},
      {"smiles": "CCOc1ccc(NC(=O)CN(c2ccc(OC)cc2)S(C)(=O)=O)cc1", "activity change, negative = inhibition": "inactive: 1.97%"},
      {"smiles": "CCOC(=O)C1C(C(=O)NN)C1C(=O)Nc1ccccc1", "note": "(stereo not given)", "Potency": "inconclusive [inhibitor, full curve]"},
      {"smiles": "O=C(c1ccccc1F)N1CCC(O)(c2cccnc2)CC1", "Potency": "inconclusive [inhibitor, partial curve, poor fit]"},
      {"smiles": "CCOc1cccc(-c2nn3c(-c4ccco4)nnc3s2)c1", "Potency": "inconclusive [inhibitor, full curve, poor fit]"},
      {"smiles": "Clc1ccc(C2=NNC(=NCc3ccccc3)SC2)cc1", "activity change, negative = inhibition": "inactive: -7.43%"},
      {"smiles": "COC(=O)c1nnn(CC(=O)Nc2ccc(C)c(F)c2)c1C(=O)OC", "Potency": "inconclusive [inhibitor, single point]"},
      {"smiles": "CC1(C)CC(N2CCOCC2)=CC(=[N+]2CCOCC2)C1", "Potency": "inconclusive [inhibitor, full curve]"},
      {"smiles": "O=C1CC(N(O)c2ccccc2)C(=O)N1c1cc(Cl)cc(Cl)c1", "note": "(stereo not given)", "Potency": "inconclusive [inhibitor, partial curve]"},
      {"smiles": "O=C(Nc1ccccc1)OCCCc1ccccc1", "Potency": "inconclusive [inhibitor, single point]"},
      {"smiles": "CN1C(=O)CC(n2c(CO)nc3ccccc32)C1=O", "note": "(stereo not given)", "Potency": "inconclusive [inhibitor, full curve]"},
      {"smiles": "CC(=O)c1cc(C#N)c(SCc2ccccc2C#N)nc1C", "Potency": "inconclusive [inhibitor, partial curve, poor fit]"},
      {"smiles": "O=C(NNC(=S)NC(=O)c1ccccc1[N+](=O)[O-])c1ccccc1O", "activity change, negative = inhibition": "inactive: 4.45%"},
      {"smiles": "CC(C)Sc1nnc([C@H](C)NC(=O)OC(C)(C)C)o1", "Potency": "inconclusive [inhibitor, full curve, poor fit]"},
      {"smiles": "CCN1C(=O)[C@@H]2[C@@H](c3ccc(-c4cccc(Cl)c4)cc3)N3CCC[C@@]3(C(=O)OC)[C@@H]2C1=O", "Potency": "inconclusive [inhibitor, single point]"},
      {"smiles": "C/C(CC(=O)Nc1cccc(F)c1)=N\\NC(=O)c1ccncc1", "Potency": "inconclusive [inhibitor, partial curve, poor fit]"},
      {"smiles": "COc1cccc(C(=O)C2CCCN(Cc3cccc(OCCO)c3)C2)c1", "note": "(stereo not given)", "Potency": "inconclusive [inhibitor, partial curve, poor fit]"},
      {"smiles": "COc1ccc(-c2csc(N(CCCN(C)C)C(=O)c3cc(OC)c(OC)c(OC)c3)n2)cc1", "Potency": "inconclusive [inhibitor, single point]"},
      {"smiles": "COc1ccc(NC(=O)CS(=O)CC(=O)Nc2cccnc2)cc1", "note": "(stereo not given)", "activity change, negative = inhibition": "inactive: 3.35%"},
      {"smiles": "Cc1cc(C)nc(NS(=O)(=O)c2ccc(N=NN(C)C)cc2)n1", "Potency": "inconclusive [inhibitor, full curve]"},
      {"smiles": "S=C(N/N=C/c1ccccc1)N1CCOCC1", "Potency": "inconclusive [inhibitor, full curve, poor fit]"},
      {"smiles": "CCN1CCN(c2ccc(S(=O)(=O)N3CCCCC3)cc2NC(=O)CC(NC(C)=O)c2ccccc2)CC1", "note": "(stereo not given)", "Potency": "inconclusive [inhibitor, full curve, poor fit]"},
      {"smiles": "COc1ccc(CN(Cc2ccccn2)S(=O)(=O)c2ccc(-n3cnnn3)c(OC)c2)cc1", "Potency": "inconclusive [inhibitor, full curve, poor fit]"},
      {"smiles": "COc1cccc(CNC(=O)CN(c2cc(C)cc(C)c2)S(=O)(=O)c2c(C)noc2C)c1", "Potency": "inconclusive [inhibitor, full curve, poor fit]"},
      {"smiles": "CCCn1c(CCNC(=O)c2cccs2)nc2ccccc21", "Potency": "inconclusive [inhibitor, partial curve, poor fit]"},
      {"smiles": "CC1Sc2ccc(S(=O)(=O)CCC(=O)NC(C)c3ccccc3)cc2NC1=O", "note": "(stereo not given)", "Potency": "inconclusive [inhibitor, full curve, poor fit]"},
      {"smiles": "O=C(O)CSc1nnc2c(n1)[nH]c1ccccc12", "activity change, negative = inhibition": "inactive: 4.89%"},
      {"smiles": "COc1cccc(NC(=O)C2C(c3ccccc3)C2(Cl)Cl)c1", "note": "(stereo not given)", "Potency": "inconclusive [inhibitor, full curve, poor fit]"}
    ]}
  ]
}
